This note sets out measurements from the supplement of paper PMC3724861.

The list shows a part of the results. Bounds are passed on as bounds.

In this test the test system is T1, Caupolican (Caup) homeodomain DNA-binding domain.
T1 sequence: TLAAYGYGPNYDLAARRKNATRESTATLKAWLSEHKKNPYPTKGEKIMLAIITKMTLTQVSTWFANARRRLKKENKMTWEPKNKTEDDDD
Description: PBM E-score (8-mer, recovered from the published 9-mer minima) (E-score (dimensionless, -0.5 to 0.5)); Drosophila protein; higher = stronger relative binding preference, active = 0.31 or more. In short, it runs like this:
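Caup's homeodomain DNA-binding domain (residues 214-303) was made by in vitro transcription and translation and applied at 100 nM to custom-designed protein binding microarrays. Each value is an enrichment score that gives relative binding preference for a short DNA word, with higher meaning stronger. The 8-mer values were recovered from published 9-mer scores, each of which was the minimum of its two constituent 8-mer scores. A cutoff of 0.31 marks candidate sites.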
For the sequence CAATGAAG, the “PBM E-score” value is inactive: 0.123.
The figure for CTATGTTC is inactive: 0.31; for ATGGGGCC it is inactive: -0.257; for AACAGAGA it is inactive: 0.118.
In the case of GTATCCGA, the “PBM E-score” value is inactive: 0.0604.
On to GAAGTCGC, for which the “PBM E-score” value was inactive: -0.0988.
As for CCACGGAA, the “PBM E-score” value was inactive: 0.0209.
As for ACGCCTTA, the figure is inactive: -0.071; as for GAGAAGCC, inactive: -0.174; as for TGCCCGAA, inactive: -0.0392.
Turning to GCTGTGCC, the “PBM E-score” value was inactive: -0.0361.
Take CCAATAAG: the “PBM E-score” value was inactive: -0.0294.
Consider GAGCTACC, for which the “PBM E-score” value was inactive: -0.103.
For GGTCGCAC, the “PBM E-score” value is inactive: -0.119.
Consider CGACAACA, for which the “PBM E-score” value is active: 0.342.
For the sequence ATTTTCCA, the “PBM E-score” value was inactive: 0.0797.
As for CATTGACC, the figure is inactive: 0.083; as for GGGTCCTA, inactive: -0.107.
Turning to ACTTCCAT, the “PBM E-score” value is inactive: 0.00693.
Take AATACCGC: the “PBM E-score” value is inactive: 0.0277.
With CCACTAGG, the “PBM E-score” value is inactive: -0.169.
As for CTTCATAA, the figure is inactive: 0.0204; as for CATATAAG, inactive: 0.164.
Consider ACCGTATC, for which the “PBM E-score” value is inactive: -0.0493.
The figure for CTTCGCTA is inactive: -0.023; for AGACAAAT it is inactive: 0.1.
Regarding TCAGAGAA, the “PBM E-score” value was inactive: 0.00804.
As for AGGCTAAG, the figure is inactive: -0.173; as for CGATTACC, inactive: -0.0444.
Turning to CACTGACC, the “PBM E-score” value was inactive: -0.134.
As for GTAACAAA, the figure is inactive: 0.217.
As to CTCTCAAC, the “PBM E-score” value was inactive: -0.0873.
For GCCTCTTA, the “PBM E-score” value is inactive: -0.151.
Consider CTTCGGTA, for which the “PBM E-score” value was inactive: -0.0284.
With AGTTCGAA, the “PBM E-score” value was inactive: 0.124.
For CGTGAACC, the “PBM E-score” value was inactive: -0.0185.
For the sequence CTAATGCC, the “PBM E-score” value was inactive: -0.106.
As to GGTATCGA, the “PBM E-score” value is inactive: 0.0412.
As for ACCTCACG, the “PBM E-score” value is inactive: -0.0522.
With AGAGGATG, the “PBM E-score” value was inactive: 0.0205.
Take AACACAGG: the “PBM E-score” value was inactive: 0.162.
For AGCGCACG, the “PBM E-score” value is inactive: -0.123.
On to ACAGTAGG, for which the “PBM E-score” value was inactive: 0.0409.
Consider TAGGGAGA, for which the “PBM E-score” value is inactive: -0.138.
As for AGGCGTGC, the figure is inactive: -0.134; as for AGACTATC, inactive: 0.0406; as for ATTCAGTG, inactive: 0.034.
Turning to CACGTCCA, the “PBM E-score” value is inactive: 0.11.
Regarding AGACCTGA, the “PBM E-score” value was inactive: -0.0421.
Turning to TCCTTAGA, the “PBM E-score” value was inactive: 0.00339.
Take CAGCCGAC: the “PBM E-score” value was inactive: -0.0959.
On to ATTAGTTA, for which the “PBM E-score” value was inactive: 0.19.
Take AAGCCATC: the “PBM E-score” value was inactive: 8e-05.
As for ATGCTGAA, the figure is inactive: 0.0213; as for GTCATCAC, inactive: 0.0296.
In the case of AATATTAG, the “PBM E-score” value is inactive: 0.228.
For GCCTCTCC, the “PBM E-score” value was inactive: -0.189.
The figure for GAACACAA is active: 0.317; for ATCGCGCA it is inactive: -0.0312; for ACTGCTTG it is inactive: 0.00369.
As to ACTACAGA, the “PBM E-score” value is inactive: 0.217.
Turning to ATCCCCTG, the “PBM E-score” value is inactive: -0.0464.
For TGATATAA, the “PBM E-score” value is inactive: 0.165.
Turning to AGGTTTAA, the “PBM E-score” value was inactive: 0.0468.
CCGGCGAG: the “PBM E-score” value was inactive: -0.162.
As for GAGGGAGC, the “PBM E-score” value was inactive: -0.196.
Turning to CGTCAGTA, the “PBM E-score” value is inactive: -0.0321.
For the sequence AAAACGAG, the “PBM E-score” value was inactive: 0.00037.
For ACTGGCAG, the “PBM E-score” value is inactive: -0.104.
With GATCTCGA, the “PBM E-score” value was inactive: -0.0485.
Take AGATACAG: the “PBM E-score” value was inactive: 0.109.
The figure for ACCTGAGT is inactive: -0.0167; for CGACCTTC it is inactive: -0.128; for AGGCCTTC it is at least -0.109.
The figure for CGACAGCA is inactive: 0.0715.
As for GTCGCATA, the figure is inactive: 0.103; as for GACATGCA, active: 0.394.
In the case of ATGGGTCG, the “PBM E-score” value was inactive: -0.0702.
The figure for GCATGTGA is inactive: 0.176; for CTTCCAGA it is inactive: -0.0108.
Regarding CTCATACA, the “PBM E-score” value was inactive: 0.105.
Consider AATTCCAA, for which the “PBM E-score” value was inactive: 0.0762.
With TATTAGGA, the “PBM E-score” value was inactive: 0.173.
Take ATCGGCCC: the “PBM E-score” value is inactive: -0.167.
Take AAACAGAA: the “PBM E-score” value is inactive: 0.0973.
CCTCACTA: the “PBM E-score” value was inactive: -0.0238.
For GCATCCGC, the “PBM E-score” value was inactive: -0.0969.
ACGCCTGC: the “PBM E-score” value is inactive: -0.115.
In the case of ACTTTAAG, the “PBM E-score” value is inactive: 0.0186.
As for CCTTTTGC, the figure is inactive: -0.144; as for CCCTCGCA, inactive: -0.221; as for GGTCAAAC, inactive: 0.0289.
As for GCTCAGAA, the “PBM E-score” value was inactive: -0.121.
As for GTCGGAAC, the figure is inactive: 0.0465.
On to GCAACTGA, for which the “PBM E-score” value is inactive: 0.00625.
In the case of GGGATAAA, the “PBM E-score” value is inactive: 0.0523.
As to ACACGCAG, the “PBM E-score” value was inactive: 0.171.
As for GCTCCTAA, the “PBM E-score” value is inactive: -0.0665.
Regarding AGGATCCC, the “PBM E-score” value was inactive: -0.104.
Regarding CCCTTGTC, the “PBM E-score” value is inactive: 0.177.
Regarding ATAGTGCC, the “PBM E-score” value was inactive: -0.00807.
Regarding GGAGATAA, the “PBM E-score” value is inactive: -0.048.
On to ACCTTACA, for which the “PBM E-score” value was inactive: 0.165.
CCGCACGC: the “PBM E-score” value was inactive: -0.165.
In the case of AAGAGATT, the “PBM E-score” value is inactive: -0.0088.
Take AAGCAATG: the “PBM E-score” value was inactive: 0.0957.
Take CCTTTAAA: the “PBM E-score” value was inactive: -0.00481.
As to ACGTAAAA, the “PBM E-score” value was inactive: 0.103.
As for GCGACGAA, the figure is inactive: -0.0973; as for AGAGCGCT, inactive: -0.145; as for ATCCGACG, inactive: -0.014.
